Measured values: PubChem BioAssay AID1508642 (National Center for Advancing Translational Sciences (NCATS), 2021)
Among all 43,000 compounds or so, about 200 (0.47%) were called active. Not shown: some 12% with an inconclusive outcome. Calls follow the shape of the dose curve; as a rule, active = well fitted cell-killing curve with a large enough effect; inconclusive = small, poorly fitted or top-dose-only effect, or effect the other way; inactive = flat fitted curve, though single readings scatter. The list shows a part of the results.

Experiment: Cell viability qHTS assay in S16 Pmp22-F2sN cells; also: nearly all actives have a fitted effect of over 65% in size
Conditions: S16 Pmp22-F2sN Schwann cells (luciferase reporters placed in the Pmp22 gene) viability, CellTiter-Glo, 24 h; series mostly up to 57.5 µM; activity change, negative = cytotoxicity: at the top concentration
Outline: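 Seed 500-1,000 S16 Pmp22-F2sN cells per well in phenol-red-free DMEM with 10% heat-inactivated FBS; pin-add 23 nL compound; incubate 24 h at 37C; add CellTiter-Glo, wait 15 min protected from light; read luminescence.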
% is scaled to controls: 0 for no effect and ±100 for the full control effect.

Structure (SMILES) | activity change, negative = cytotoxicity
CCc1ccc(CN(Cc2ccco2)c2cnc(S(C)(=O)=O)nc2C(=O)Nc2c(C)cccc2C)cc1 | inactive: -3.49%
COc1cccc(NS(=O)(=O)c2ccc3c(c2)[C@H]2C=CC[C@H]2[C@@H](c2ccccc2Cl)N3)c1 | inactive: -16.2%
Cc1[nH]c2ccccc2c1C(c1ccccc1)c1ccc(Cl)s1 (configuration not stated) | inactive: 5.07%
CCOc1ccccc1NC(=O)CCn1cnnn1 | inactive: 8.19%
COc1cccc(CNC(=O)Cc2ccc(NC(=O)N3CCSc4ncccc43)cc2)c1OC | inactive: -6.06%
Cc1cccn2c(Nc3ccccc3)c(-c3cccs3)nc12 | inactive: -5.47%
CCN(CC)CCNC(=O)CSc1nc2nc(C)c(Cc3ccccc3)c(C)n2n1 | inactive: 3.96%
CCOc1ccc(CNC(=O)c2cnc3sc(N4CCOCC4)nn3c2=O)cc1OC | inactive: 2.47%
Cc1cccc(N2CCN(C(=O)CN3C(=O)COc4ccc(S(=O)(=O)N5CCC(C)CC5)cc43)CC2C)c1 (configuration not stated) | inactive: 3.39%
CC(C)c1nc2ccc(C(=O)NCCCN3CCN(c4cccc(Cl)c4)CC3)cc2o1 | inactive: -21.7%
CCOC(=O)N1CCN(Cc2nc3cc([N+](=O)[O-])ccc3n2C(C)C)CC1 | inactive: -16.6%
Cc1cccc(N2CCN(C(=O)C3CCCN(S(=O)(=O)c4ccc(Br)s4)C3)CC2)c1C (configuration not stated) | inactive: -13.7%
CCOC(=O)C1CCC(CN(Cc2ccc(Cl)cc2)S(=O)(=O)c2cc(Cl)cc(Cl)c2)CC1 (configuration not stated) | inactive: 0.482%
Cn1c(=O)c2c(SCC(=O)NCc3ccco3)nc(-c3cccc(F)c3)nc2n(C)c1=O | inactive: 2.57%
Cc1ccc(S(=O)(=O)c2cn(CC(=O)Nc3ccccc3C)c3cc4c(cc3c2=O)OCO4)cc1 | inactive: -0.454%
CCOc1ccc(CC(=O)Nc2c(C(=O)Nc3ccc(OC)cc3OC)oc3ccccc23)cc1 | inactive: 1.83%
NS(=O)(=O)c1ccc(CCNC(=O)c2ccc3nc(CCc4ccccc4)oc3c2)cc1 | inactive: 5.29%
Cc1cc2c(cc1S(=O)(=O)N(C)CC(=O)Nc1ccc(C#N)cc1)OCC(=O)N2 | inactive: 20.9%
CCOC(=O)c1c(S(=O)(=O)NCC(=O)Nc2ccc(C)c(N(C)C)c2)c(C)n(C)c1C | inactive: 13%
COc1ccc(-c2nc3cc(C)ccn3c2NC(=O)c2ccc(F)cc2)cc1 | inactive: 20.5%
COc1ccc(CCNC(=O)c2cccc(-n3cnc4cccnc43)c2C)cc1OC | inactive: 9.54%
CC(CNC(=O)CN1C(=O)COc2ccc(S(=O)(=O)N3CCCCCC3)cc21)c1ccccc1 (configuration not stated) | inactive: 6.64%
CCCCNC(=O)c1nn(-c2ccc(C)cc2)c(=O)n(C)c1=O | inactive: 14.2%
Cc1ccc(Cl)cc1NC(=O)C1CCCN(S(=O)(=O)c2cccc3cccnc23)C1 (configuration not stated) | inactive: -17.6%

Structure (SMILES) | activity change, negative = cytotoxicity
CCC(=O)N1CCc2cc(Br)cc(S(=O)(=O)N3CCCC(C(=O)Nc4cccc(C)c4C)C3)c21 (configuration not stated) | inactive: 4.5%
Cc1ccccc1NC(=O)c1c(NC(=O)c2ccco2)sc2c1CCC(C(C)(C)C)C2 (configuration not stated) | inactive: -2.47%
COc1ccccc1CNC(=O)CSc1nc2nc(C)c(Cc3ccccc3Cl)c(C)n2n1 | inactive: -22.4%
COc1ccc(N2C(=O)CS(=O)(=O)C23C(=O)N(Cc2ccc(F)cc2)c2ccc(C)cc23)cc1 (configuration not stated) | inactive: -5.1%
CCOC(=O)c1c(S(=O)(=O)N2CCCC(C(=O)Nc3cccc(C#N)c3)C2)c(C)n(C)c1C (configuration not stated) | inactive: 2.17%
Cc1ccccc1CNC(=O)c1cccc(NC(=O)N2CCSc3ncccc32)c1 | inactive: 6.91%
CC(Oc1ccccc1)C(=O)Nc1ccc(OCc2cc(=O)n3ccsc3n2)cc1 (configuration not stated) | inactive: 1.73%
O=C(Cn1c(=O)c2ccccc2n(CC(=O)Nc2ccc(Cl)cc2)c1=O)NCCc1ccccc1 | inactive: -21.3%
CCCCN(C)CCNC(=O)C1CCCN(S(=O)(=O)c2ccc3c(c2)oc(=O)n3C)C1 (configuration not stated) | inactive: -7.5%
Cc1c(CCNC(=O)Cc2ccc(F)cc2)sc2nc(-c3ccc(F)cc3)nn12 | inactive: -20.8%
CCc1ccccc1NC(=O)Cn1c(=O)n(CCCS(=O)(=O)C2CCCCC2)c(=O)c2ccccc21 | inactive: 3.7%
COc1ccc(C(=O)Oc2c(Sc3ccc(Cl)cc3)c(C)nn2C(C)(C)C)cc1OC | inactive: -3.54%
COc1ccc(NC(=O)CCCn2c(=O)c3cccn3c3ccccc32)c(OC)c1 | inactive: -18.8%
O=C(NCCc1csc(-c2ccc(C(F)(F)F)cc2)n1)C(=O)Nc1cc(F)ccc1F | inactive: 11.3%
CCOC(=O)c1[nH]c(C)c(CCC(=O)Nc2ccc(C(C)=O)cc2)c1C | inactive: 0.522%
Cc1ccccc1NS(=O)(=O)c1nnc(NC(=O)c2ccc(Cl)cc2)s1 | inactive: 0.906%
Cc1cccc(CNS(=O)(=O)c2csc(C(N)=O)c2)c1 | inactive: -6.76%
CCOc1cccc(CNCCNC(=O)c2nonc2N)c1 | inactive: 3.58%
O=C1C(c2cccc(Br)c2)N(CCc2ccccc2)C(=O)CN1C1CCCCC1 (configuration not stated) | inactive: -2.3%
CCOc1ccc(C(=O)Nc2cccc(OCc3cc(=O)n4ccccc4n3)c2)cc1 | inactive: -1.78%
CCOC(=O)c1cnc2c(C)cc(C)cc2c1NCCc1ccc(OC)c(OC)c1 | inactive: 4.22%
Cc1ccc(Cl)cc1-n1c(=O)c2sc3ccccc3c2n(CC(=O)NC2CCCCC2)c1=O | inactive: -6.73%
COc1ccc(CNC(=O)Cn2c(=O)oc3cc(S(=O)(=O)N4CCC(C)CC4)ccc32)cc1 | inactive: -20.1%
